# According to ChEMBL document CHEMBL4888484, “Replenishing the malaria drug discovery pipeline: Screening and hit evaluation of the MMV Hit Generation Library 1 (HGL1) against asexual blood stage Plasmodium falciparum ,using a nano luciferase reporter read-out” (2022):
# In all, about 150,000 compounds went through this assay and about 540 (0.36%) showed an effect of 50% or more. Some of the results follow.
# System: Plasmodium falciparum
# Assay: Primary screen in NF54 nanoGlo assay, in single point, at 2uM, 72h; a lower Z score goes with more inhibition
# Format: functional, Erythrocyte
# Conditions: timepoint 72 hour
Compound,% Inhibition [%],Z score
CNC(=O)C[C@H](C)N(C)Cc1ccc(C(=O)Nc2cnn(C)n2)cc1,-10,1.84
CC(C)Cc1nc(C(=O)NC2(c3ncon3)CCOCC2)cs1,-1,0.08
O=C(c1cncc(Br)c1)N1CC[C@H](Oc2cnsn2)C1,-12,2.26
C[C@H]1CN(C(=O)C2(C#N)CCCCC2)CC(C)(C)O1,-15,1.57
c1ccc2c(c1)CCN(C1CCN(c3ccc4ccccc4n3)CC1)C2,-2,0.42
CCC(NCC(C)c1ccc(F)cc1)C(=O)N1CCOCC1 (stereo not drawn),-13,1.81
Cc1ccc(CNC(=O)CN2CCN(c3nccn3C)CC2)cc1,-10,1.69
CCN(C(=O)C1CC1c1cnn(C)c1)c1ccccc1 (stereo not drawn),-46,5.44
O=S(=O)(N[C@@H](Cn1cnc2ccccc21)c1ccc(F)cc1)c1cc(F)c(F)cc1F,37,-4.73
O=C(NC1CC1)[C@@H]1CCCN1c1ccc2ccccc2n1,-11,1.46
O=C(N[C@@]1(CO)CCOC1)c1ccc(F)c2ccncc12,0,-0.09
CC1(C)NC(=O)N(CCN2CCCc3cccc(F)c32)C1=O,-4,0.5
O=C(NC1CCC(F)(F)CC1)c1cn[nH]c1,-6,1.18
Cc1nccn1CCC1CCN(Cc2ccoc2)CC1,2,-0.42
C[C@@H](C(N)=O)N1CCC(c2nc3cc(Cl)ccc3o2)CC1,-3,0.44
CC(C)(C)c1ccc(C(=O)N2CCN(C(=O)Cn3cnnn3)CC2)s1,-3,0.58
Cc1ccc(NC(=O)NC(C)COCC(F)(F)F)cc1NC(=O)NC(C)COCC(F)(F)F (stereo not drawn),-7,1.27
O=C(CCn1cccn1)N[C@H](c1cccc(F)c1F)C(F)(F)F,-2,0.42
Cn1nc(C(=O)N2CCN(c3cnccn3)CC2)ccc1=O,-12,2.23
COc1ccc2c(c1)CN(c1cc(C)nc(N)n1)CC2,-3,0.27
N#Cc1ccc(C(=O)N2C[C@@H](CO)C[C@@H](CN3CCOCC3)C2)cn1,1,-0.21
CC(C)OCCCNc1ccc(-c2ccnn2C)nn1,3,-0.37
COc1ncccc1CN(C)C(=O)CC1CCCC1,-11,1.38
C[C@@H](CNC(=O)c1ccc(Cl)c(-n2cnc3cccnc32)c1)c1ccccc1,31,-4.45
O=C(CNC1(c2ccc(Br)cc2)CCOCC1)Nc1ccccc1C(F)(F)F,-13,1.17
CN1CCN(c2cccc(Cl)c2CNc2ccc3ccn(C)c(=O)c3c2)CC1,7,-1.43
CCOC(=O)c1cnn2c(C(=O)N3CCC[C@H](c4nc(C)cs4)C3)ccnc12,-8,1.3

Compound,% Inhibition [%],Z score
COc1cc2ccc1Oc1cccc(c1)CO[C@H]1CN(C(=O)c3c(C)nc4sccn34)C[C@@H]1NC(=O)CN(C1CC1)C(=O)CC2,11,-2.06
COC(=O)[C@](C)(CO)NCc1ccc(F)c(C)c1,19,-2.37
CCn1ncc(Cl)c1C(=O)N1CCn2nc(CO)cc2C1,-19,2.12
Cc1cc(C(C)NC(=O)C2CC(O)CN2)c(C)s1 (stereo not drawn),-9,1.27
O=C(O)C[C@@H]1CCN(C(=O)c2ccc(F)cc2)C[C@@H]1CCN1CCN(c2ccccc2)CC1,19,-2.93
CN1CC2(C[C@H]1c1nc(-c3cccnc3)no1)CN(C(=O)CC1CCCCC1)C2,-16,1.89
CN(Cc1ccc(Cl)s1)c1cncc(C(N)=O)n1,-9,1.8
Cc1cnc(CN2CCC[C@H]2C(=O)N(C)C)cn1,-4,0.65
CCc1nc(CN(C)[C@@H](C(=O)O)c2ccc(NC(=O)C(C)(C)C)nc2)no1,-7,0.8
C[C@H]1CC(=O)Nc2ccccc2N1C(=O)COC(=O)CNC(=O)c1cccc(F)c1,-32,3.73
CCc1ccccc1OCCN1CCN(C)[C@]2(CCC(=O)N(C)CC2)C1,6,-1.1
Cc1ccc(-c2ccno2)cc1S(=O)(=O)N[C@H]1CC=CC[C@@H]1C(N)=O,-15,2.61
CC1CCN(C(=O)[C@H](C2CCCC2)N2CCN(C(=O)c3ccc(F)cc3)CC2)CC1,-9,1.58
CCCn1nnn(-c2ccc(OC)c(Cl)c2)c1=O,-30,3.56
C=C(C)C[C@H](C)C(=O)NCc1snc(OC)c1Br,-9,1.21
CC(C)Oc1ccccc1[C@H]1Nc2ccccc2C(c2ccccc2)(c2ccccc2)O1,-1,0.21
COCCC(=O)Nc1cc(F)c(F)cc1Cl,-10,1.46
Cc1csc([C@@H](Nc2nccnc2C#N)C2CC2)n1,-10,1.85
COc1ccc(CNC(=O)[C@H]2CCCN(c3nccn4nc(-c5ccc(C)cc5C)cc34)C2)cc1OC,4,-0.6
CC1CN(C(=O)N[C@@H](C)c2cc3ccccc3o2)CC(=O)N1C (stereo partly drawn),-2,0.32
COCCN1C(C)CN(S(=O)(=O)NCC(F)(F)F)CC1C (stereo not drawn),4,-0.84
CC(C)OCCCNc1ccnc(CO)c1,3,-0.55
CCOCc1c(C(=O)N2CCC[C@H](c3nc4ccccc4s3)C2)oc2ccccc12,9,-1.63
CC(NC(=O)CC#N)C(c1ccccc1Cl)n1cccn1 (stereo not drawn),-1,0.24
CCN=C(NCc1ccn(C(C)C)n1)NC1CC1C (stereo not drawn),-2,0.28
CC(C)n1c(=O)c2nscc2n(CC(=O)Nc2ccc(Cl)cc2)c1=O,-11,1.34
COc1cccc(-c2noc(Nc3ccc4c(c3)OCO4)n2)c1,-26,2.27
